# PubChem BioAssay (Tox21)
# Where “and” joins values, the source holds several entries; their conditions need not be identical. Equal values may be shown once. The shares of active, inactive and inconclusive entries below differ from those in the screen. Potencies beside an inconclusive call are fits to weak or partial responses and may not hold up. Some structures have more than one record in an assay (separate samples or runs), and their calls can disagree. Calls of active or inactive are those of the source. The call rests on the fitted dose curve; in most records, active means well fitted inhibition curve with a large enough effect in the repeat runs; inconclusive means weak or mixed curves; inactive means no such curve, though single readings can be large or run the other way.
# Target: Cytochrome P450 1A2 (Homo sapiens) (UniProt P05177)
# Assay: Cytochrome P450 Family 1 Subfamily A Member 2 (CYP1A2) small molecule antagonists: luciferase reporter qHTS assay (AID 1671199); further: nearly all actives have a fitted effect of over 50% in size
# Settings: P450-Glo CYP1A2 enzyme, luciferin luminescence, 1 h; series mostly up to 115 µM; activity change, negative = inhibition: at the top concentration
# Outline: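 Enzymatic CYP1A2 assay, human, luminescent: 10 min compound–enzyme–substrate preincubation, 1 h NADPH-dependent turnover, 20 min detection step, room temperature throughout. Reduced light indicates lower CYP1A2 activity.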
# On the % scale 0 is the no-effect control and ±100 the full control effect; potency means the concentration at half of the fitted maximal effect; tags describe the fitted curve by direction and shape.
# Chain of UniProt P05177 (P05177 whole entry, looked up): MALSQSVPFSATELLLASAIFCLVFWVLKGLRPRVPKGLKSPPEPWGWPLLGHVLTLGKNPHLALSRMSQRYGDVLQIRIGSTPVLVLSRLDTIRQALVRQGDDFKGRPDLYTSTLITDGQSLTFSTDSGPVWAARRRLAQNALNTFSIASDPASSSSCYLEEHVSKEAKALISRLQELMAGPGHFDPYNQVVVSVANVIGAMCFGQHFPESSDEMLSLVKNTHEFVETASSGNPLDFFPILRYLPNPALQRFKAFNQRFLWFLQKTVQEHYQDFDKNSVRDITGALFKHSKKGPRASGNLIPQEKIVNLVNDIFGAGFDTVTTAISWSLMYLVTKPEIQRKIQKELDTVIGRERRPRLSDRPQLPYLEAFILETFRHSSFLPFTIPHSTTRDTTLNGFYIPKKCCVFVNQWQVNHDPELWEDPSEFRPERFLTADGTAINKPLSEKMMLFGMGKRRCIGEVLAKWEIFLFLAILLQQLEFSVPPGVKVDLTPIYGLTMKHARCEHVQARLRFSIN
Compound,"activity change, negative = inhibition",Potency
CC(=O)NC1CCSC1=O (stereo not drawn),inactive: 0.172% [at 53 µM],–
C[C@H]1O[C@H](OC2[C@@H](O)[C@@H](O)C(O)[C@H](O)[C@H]2O)[C@@H](N)C[C@@H]1N=C(N)C(=O)O (stereo partly drawn),–,"inconclusive: 39.9 µM [inhibitor, partial curve]"
O=C(CBr)OCc1ccccc1,inactive: -17.4%,–
c1ccc(N2CCNCC2)cc1,–,"inconclusive: 27.5 µM [inhibitor, partial curve]"
CCN,–,"inconclusive: 90 µM [inhibitor, single point]"
CCCCCCC#N,–,active: 38.7 µM
NCC(CC(=O)O)c1ccc(Cl)cc1 (stereo not drawn),inactive: 12.7% [at 0.435 µM],–
Nc1ccccc1Cl,–,"inconclusive: 38.6 µM [inhibitor, partial curve]"
CCCCc1ccccc1,inactive: -4.84%,–
CCCCCCCCCCCCCl,–,inactive
C1CCC(NC2CCCCC2)CC1,–,"inconclusive: 65.5 µM [inhibitor, partial curve, poor fit]"
C=CC(=O)OCC(C)O (stereo not drawn),–,"inconclusive: 36.7 µM [inhibitor, partial curve]"
NCCOS(=O)(=O)O,inactive: -12.7%,–
O=C(O)C(Cl)Cl,–,"inconclusive: 73.1 µM [inhibitor] and inconclusive: 71 µM [inhibitor, partial curve, poor fit]"
O=[N+]([O-])c1ccc2ccc3cccc4ccc1c2c34,–,active: 0.224 µM
CCOP(=O)(O)OCC (tested in a mixture with another compound),–,"inconclusive: 40.3 µM [inhibitor, partial curve] and active: 79 µM"
CCO[C@H]1O[C@@H]2OC3(C)CC[C@H]4[C@H](C)CC[C@@H]([C@H]1C)[C@@]24OO3,–,"inconclusive: 34.7 µM [inhibitor, partial curve]"
c1coc(-c2nc3ccccc3[nH]2)c1,–,active: 7.96 µM
Nc1ccc([N+](=O)[O-])cc1[N+](=O)[O-],–,active: 6.92 µM

Compound,"activity change, negative = inhibition",Potency
CN(C)N=O,–,"inconclusive: 39.7 µM [inhibitor, partial curve, poor fit]"
O=C(O)CCCCCCNC1c2ccccc2CCc2ccccc21,inactive: -12.2% [at 53 µM],–
COc1c2c(cc3c1OCO3)CCN(C)C2,–,"inconclusive: 3.63 µM [inhibitor, full curve, poor fit]"
O=C(O)C(Br)Br,–,"inconclusive: 64 µM [inhibitor, partial curve]"
CC(C)OC(=S)S,–,"inconclusive: 31.7 µM [inhibitor, partial curve]"
COCC(=O)N(c1c(C)cccc1C)N1CCOC1=O,inactive: -24.9%,–
CC[n+]1ccccc1,–,"inconclusive: 63.1 µM [inhibitor, partial curve, poor fit]"
COc1ccc(C=O)cc1,–,"inconclusive: 35.1 µM [inhibitor, partial curve, poor fit]"
O=[N+]([O-])c1ccc(CBr)cc1,–,"inconclusive: 70.1 µM [inhibitor, partial curve, poor fit]"
CCCCNP(N)(N)=S,inactive: -21.9%,–
CNC(=O)Oc1cccc2ccccc12,–,"inconclusive: 2.57 µM [inhibitor, full curve, poor fit]"
CCCCCCCCCCCCCCCCCC(=O)O,–,"inconclusive: 63.3 µM [inhibitor, partial curve]"
C=CCOC(=O)c1ccccc1N,–,active: 7.15 µM
CCC(C(N)=O)N1CCCC1=O (stereo not drawn),inactive: -6.94% [at 53 µM],–
CC(C)(C)C(O)C(Oc1ccc(-c2ccccc2)cc1)n1cncn1 (stereo not drawn),–,"inconclusive: 71 µM [inhibitor, partial curve]"
CC(C)C#N,–,"inconclusive: 67.3 µM [inhibitor, single point]"
Cc1ccc(Cl)c(O)c1,inactive: -17% [at 53 µM],–
CCCC[n+]1ccccc1,–,"inconclusive: 63.4 µM [inhibitor, partial curve, poor fit]"
Nc1ccc(-c2ccccc2)cc1,–,active: 1.83 µM and active: 6.33 µM
